Measurements reported in the supplement of paper PMC11417369.
± gives the standard deviation of the averaged measurements. The list shows a part of the results.

What follows are sequences tested on PfAP2-EXP AP2 domain (GST-tagged) (assay: gcPBM binding intensity (ln(normalized median fluorescence intensity)); higher = stronger DNA binding).
Summary of the method: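 Binding of GST-tagged P. falciparum DNA-binding domains, expressed in E. coli and used at about 25 μg on average, was carried out for 1 h in 1× PBS containing 1% milk, 0.2 mg/ml BSA, 0.5% salmon testes DNA and 0.03% Triton X-100. The target was an Agilent 4 × 180k array of primer-extended double-stranded 36-bp intergenic genomic probes plus negative controls, read with Alexa488 anti-GST antibody at 488 nm. Binding intensity is the highest Masliner-normalised natural-log median intensity across replicate spots of either probe orientation.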

Sequence	gcPBM binding intensity (ln)
AAGGGGAGAAAAATAAACGAAATATATACATACATA [XGTACX_negctrl_site88]	8.64 ± 0.47
ACAAATAAATATATATGTACATATATTTTTTTATTT [XGTACX_site2989]	8.56 ± 0.37
TTTTATTTATATTATACACACAAGGAAAAAAAAAAA [CACACA_site7690]	8.64 ± 0.31
TTTTGATATAAATATTAGATTAATAAATAAAAAAAT [CACACA_negctrl_site1635]	8.37 ± 0.42
TTAAAATAGATATTAGTGCAAAAAAAAAAAAATAAA	8.8 ± 0.17
TTTTTTGTTTGAATGGTGCATTTTGTAATTATATTT	8.965 ± 0.049
ATAATATCATAATATTGTACATATTTTATTTTAAAT [XGTACX_site1115]	8.36 ± 0.29
CAACTAACATATATTCAACACACATATACCTTCAAC [CACACA_site8988]	8.55 ± 0.46
GATATATTATTTGAATGTACATATTATATTTATATT [XGTACX_site907]	8.45 ± 0.33
ATTGTATATGTATATGCACACAATATATGTACTTAT [CACACA_site2611]	8.49 ± 0.18
TAACATATTATATATACATGCATACGTGAACTAATC [TGCATGCA_site888]	8.89 ± 0.26
TTTTTTTAGTTAATTAAACACACAAAAAAAAAAATA [CACACA_site9301]	8.36 ± 0.43
GTTAGAATTGTTAGGTGGTCAAAAAGGAGAAAAAAA [XGTACX_site2086]	8.77 ± 0.31
ATTATTTAATTTTATTAAAAAAAAACAAATTAACAG [GTGCAC_negctrl_site152]	8.24 ± 0.3
AAAAGAAAATTAAATTAACACACATAAATATATATA [CACACA_site8482]	8.43 ± 0.14
TTCACATACAGAAACACACACATATTTATAAATTAA [CACACA_site7699]	8.47 ± 0.42
TTTTTAATTAACTTTTTATAAATAAATAAAAATATA [GTGCAC_negctrl_site334]	7.93 ± 0.42
AAATAATATTTATACACACACACATATTTATATACA [CACACA_site6403]	8.5 ± 0.4
TTATTTTATTTTGAAGCATGCTTTTTGCTGTGATAA [TGCATGCA_site278]	8.73 ± 0.18

Sequence	gcPBM binding intensity (ln)
TTATGCGTTTGCAAAAGTACATATCTATTATTTTTA [XGTACX_site7609]	8.62 ± 0.5
GGTCTTATTTTTAGTAGTACAAATATAATATACATA [XGTACX_site6483]	8.56 ± 0.4
TTTTTTTTTTTTTGTTGTACCCATCATATATACATA [XGTACX_site4342]	8.63 ± 0.58
TATAAAAATATTTAATGTACGAATCTGTGATATATC [XGTACX_site7881]	8.53 ± 0.42
TTTTCATGTTGTAAAGCATGCTTTACTCATAAAAAA [TGCATGCA_site917]	8.57 ± 0.3
ATTATTAAAAGAAGAAGTACTTATATATTAATATTA [XGTACX_site5227]	8.62 ± 0.37
AAAATACACGCATACACACACACACGCGCACATATA [CACACA_site6448]	8.96 ± 0.36
ATATATTACATATGTGTGCACGTTCCAAAATTTTTA	9.37 ± 0.35
CTAAACAGAATTATCACACATATAAATATAAACATA [CACACA_site4560]	8.45 ± 0.33
TATATTTATTTATATACACACACTTGTATAAAAAAT [CACACA_site2036]	8.25 ± 0.44
TATCTATATGGGAACACACTCATAAATATATATCTA [CACACA_site4815]	8.66 ± 0.48
TATATACAGAAACACACACACACATATATATATATA [CACACA_site2247]	10.1 ± 0.29
TTAAATATTTTTAGAGTGCATGTAATAAAAATATAA [GTGCAC_site9414]	8.91 ± 0.2
TATATCAAAATACATACACACATTTGTATATACATT [CACACA_site2696]	8.48 ± 0.4
AAAATAAATAAATACACACACACGAATATATATATA [CACACA_site1683]	9.78 ± 0.16
TTTTAAAAATAATAAATAAATAAAATTGAAGTTCCA [CACACA_negctrl_site305]	8.23 ± 0.59
AAAATTTTTAAATATTGTACTATTTATTTTTAGCAT [XGTACX_site6190]	8.55 ± 0.4
TATATATATATATTTACACACATTCATATAAATTCA [CACACA_site3532]	9.94 ± 0.33
AATATGAACGGACACACACACACAAAAAAAAAAAAA [CACACA_site5154]	8.28 ± 0.4

Sequence	gcPBM binding intensity (ln)
GCCTACAGACTTAGTAGTACATGAGAAGATATATAT [XGTACX_site2269]	8.71 ± 0.49
TTTGAATATATAAATATGCACACTTCTATTATAAAT [CACACA_site3359]	8.3 ± 0.18
TTCTTATATAAATACACACACAAAATATCTACAATG [CACACA_site4568]	8.68 ± 0.38
TATTATTTTTCCTAATGTACAAAATATATATTTTTA [XGTACX_site2727]	8.59 ± 0.38
TATATTAGAAGAAATTCACACATTCATGTAATCTTA [CACACA_site4706]	8.07 ± 0.33
ATGTTGCACAATGTTACACACACAATATATATCGTT [CACACA_site4833]	8.92 ± 0.28
AAAAAAATAAAAAGGAACGTCTATAGTTAATTTATT [CACACA_negctrl_site919]	8.66 ± 0.46
AATCGATTGGATAATATTTTTTCTCTTAATTTTTTG [GTGCAC_negctrl_site165]	8.48 ± 0.042
TTTTTTTTGTTGTTGTTGCACTTGATAGGAATGGCT [GTGCAC_site9701]	8.68 ± 0.47
CCATTTACAAAAAGGAGTACACAAATATATGTTTAA [XGTACX_site649]	8.46 ± 0.31
AAAAAAAACAGACACACACACAAATACATACACAAA [CACACA_site705]	8.78 ± 0.57
TACTTACAGATAATAACACACAAGAAAAAAATAAAA [CACACA_site4716]	8.68 ± 0.44
AATATTTATGGGTGCACACAAACATACAGATATATA [CACACA_site5810]	9.48 ± 0.63
TATATATATATCAAGTGTACTTGTGTTTGTAATATT [XGTACX_site8854]	9.725 ± 0.049
ATATAAATGTATATGACACACATATATATATATATA [CACACA_site889]	9.91 ± 0.3
TACAAATATGGACACACACACATATTTATATTTATA [CACACA_site6420]	8.65 ± 0.51
AAAAAACAGACATACACACACACACGGATATTTATA [CACACA_site7570]	8.74 ± 0.57
GAATTTTTGACGATATAGGAAATAATTATCCTGAAG [XGTACX_negctrl_site61]	8.48 ± 0.61
CTGTTAATTATATATTGTACAAAAGATATGATTATA [XGTACX_site6927]	8.49 ± 0.44
